In the supplement of paper PMC9927326:

Columns and labels:
Assay in all cases: CLSI broth microdilution.
itraconazole = compound: CCC(C)n1ncn(-c2ccc(N3CCN(c4ccc(OCC5COC(Cn6cncn6)(c6ccc(Cl)cc6Cl)O5)cc4)CC3)cc2)c1=O [itraconazole]
micafungin = compound: CCCCCOc1ccc(-c2cc(-c3ccc(C(=O)N[C@H]4C[C@@H](O)[C@@H](O)NC(=O)[C@@H]5[C@@H](O)[C@@H](C)CN5C(=O)[C@H]([C@H](O)CC(N)=O)NC(=O)[C@H]([C@H](O)[C@@H](O)c5ccc(O)c(OS(=O)(=O)O)c5)NC(=O)[C@@H]5C[C@@H](O)CN5C(=O)[C@H]([C@@H](C)O)NC4=O)cc3)no2)cc1 [micafungin]
anidulafungin = compound: CCCCCOc1ccc(-c2ccc(-c3ccc(C(=O)N[C@H]4C[C@@H](O)[C@@H](O)NC(=O)[C@@H]5[C@@H](O)[C@@H](C)CN5C(=O)[C@H]([C@@H](C)O)NC(=O)[C@H]([C@H](O)[C@@H](O)c5ccc(O)cc5)NC(=O)[C@@H]5C[C@@H](O)CN5C(=O)[C@H]([C@@H](C)O)NC4=O)cc3)cc2)cc1 [anidulafungin]
posaconazole = compound: CC[C@@H]([C@H](C)O)n1ncn(-c2ccc(N3CCN(c4ccc(OC[C@@H]5CO[C@@](Cn6cncn6)(c6ccc(F)cc6F)C5)cc4)CC3)cc2)c1=O [posaconazole]
caspofungin = compound: CC[C@H](C)C[C@H](C)CCCCCCCCC(=O)N[C@H]1C[C@@H](O)[C@@H](NCCN)NC(=O)[C@@H]2[C@@H](O)CCN2C(=O)[C@H]([C@H](O)CCN)NC(=O)[C@H]([C@H](O)[C@@H](O)c2ccc(O)cc2)NC(=O)[C@@H]2C[C@@H](O)CN2C(=O)[C@H]([C@@H](C)O)NC1=O [caspofungin]
voriconazole = compound: C[C@@H](c1ncncc1F)[C@](O)(Cn1cncn1)c1ccc(F)cc1F [voriconazole]
amphotericin B = compound: C[C@@H]1[C@H](O)[C@@H](C)/C=C/C=C/C=C/C=C/C=C/C=C/C=C/[C@H](O[C@@H]2O[C@H](C)[C@@H](O)[C@H](N)[C@@H]2O)C[C@@H]2O[C@](O)(C[C@@H](O)C[C@@H](O)[C@H](O)CC[C@@H](O)C[C@@H](O)CC(=O)O[C@H]1C)C[C@H](O)[C@H]2C(=O)O [amphotericin B]
flucytosine = compound: Nc1[nH]c(=O)ncc1F [flucytosine]
fluconazole = compound: OC(Cn1cncn1)(Cn1cncn1)c1ccc(F)cc1F [fluconazole]

“Candida albicans isolate 140 (Erg11p: E266D, Fur1p: WT, Tac1p: I558V,A377V,F189S,N174D,M170I,M170V,K87N)” was tested, and the MIC (itraconazole) was 0.06 mg/L [S], the MIC (micafungin) was ≤ 0.008 mg/L [S] and the MIC (anidulafungin) was ≤ 0.015 mg/L [S]. The MIC (posaconazole) was 0.03 mg/L [S], the MIC (caspofungin) was 0.015 mg/L [S] and the MIC (voriconazole) was 0.015 mg/L [S]. The MIC (amphotericin B) was 1 mg/L [S], the MIC (flucytosine) was ≤ 0.06 mg/L [S] and the MIC (fluconazole) was 0.5 mg/L [S].
With “Candida albicans isolate 351 (Erg11p: E266D, Fur1p: WT, Tac1p: C908Y,A377V,N174D,M170I,I109N,K87N)” the MIC (itraconazole) was ≥ 16 mg/L [R], the MIC (micafungin) was 0.06 mg/L [S] and the MIC (anidulafungin) was 0.25 mg/L [S]. The MIC (posaconazole) was ≥ 8 mg/L [R], the MIC (caspofungin) was 0.25 mg/L [S] and the MIC (voriconazole) was ≥ 8 mg/L [R]. The MIC (amphotericin B) was 1 mg/L [S], the MIC (flucytosine) was 0.25 mg/L [S] and the MIC (fluconazole) was ≥ 256 mg/L [R].
For “Candida albicans isolate 211 (Erg11p: V488I,E266D, Fur1p: WT, Tac1p: N896S,I895T)”, the MIC (itraconazole) was 0.03 mg/L [S], the MIC (micafungin) was ≤ 0.008 mg/L [S] and the MIC (anidulafungin) was 0.06 mg/L [S]. The MIC (posaconazole) was 0.015 mg/L [S], the MIC (caspofungin) was 0.03 mg/L [S] and the MIC (voriconazole) was ≤ 0.008 mg/L [S]. The MIC (amphotericin B) was 0.25 mg/L [S], the MIC (flucytosine) was ≤ 0.06 mg/L [S] and the MIC (fluconazole) was 0.5 mg/L [S].
Work on “Candida albicans isolate 319 (Erg11p: D153E, Fur1p: WT, Tac1p: N896S)” yielded an MIC (itraconazole) of 0.03 mg/L [S], an MIC (micafungin) of 0.015 mg/L [S] and an MIC (anidulafungin) of 0.06 mg/L [S]. The MIC (posaconazole) was 0.03 mg/L [S], the MIC (caspofungin) was 0.06 mg/L [S] and the MIC (voriconazole) was ≤ 0.008 mg/L [S]. The MIC (amphotericin B) was 0.5 mg/L [S], the MIC (flucytosine) was 0.12 mg/L [S] and the MIC (fluconazole) was 0.5 mg/L [S].
With “Candida albicans isolate 234 (Erg11p: G465S,Y132H, Fur1p: R101C, Tac1p: WT)” the MIC (itraconazole) was ≤ 0.015 mg/L [S], the MIC (micafungin) was 0.015 mg/L [S] and the MIC (anidulafungin) was ≤ 0.015 mg/L [S]. The MIC (posaconazole) was ≤ 0.008 mg/L [S], the MIC (caspofungin) was 0.015 mg/L [S] and the MIC (voriconazole) was 0.12 mg/L [S]. The MIC (amphotericin B) was 0.25 mg/L [S], the MIC (flucytosine) was ≤ 0.06 mg/L [S] and the MIC (fluconazole) was 1 mg/L [S].
“Candida albicans isolate 74 (Erg11p: E266D, Fur1p: WT, Tac1p: I558V,A377V,F189S,N174D,M170I,K87N)” was tested, and the MIC (itraconazole) was 0.06 mg/L [S], the MIC (micafungin) was ≤ 0.008 mg/L [S] and the MIC (anidulafungin) was 0.06 mg/L [S]. For the same test system, the MIC (posaconazole) was 0.03 mg/L [S], the MIC (caspofungin) was 0.06 mg/L [S] and the MIC (voriconazole) was ≤ 0.008 mg/L [S]. The MIC (amphotericin B) was 0.5 mg/L [S], the MIC (flucytosine) was ≤ 0.06 mg/L [S] and the MIC (fluconazole) was 0.25 mg/L [S].
“Candida albicans isolate 269 (Erg11p: V488I,E266D, Fur1p: WT, Tac1p: I895T,R673G)” was tested, and the MIC (itraconazole) was 0.5 mg/L [R], the MIC (micafungin) was 0.03 mg/L [S] and the MIC (anidulafungin) was ≤ 0.015 mg/L [S]. It also gave an MIC (posaconazole) of 0.5 mg/L [R], an MIC (caspofungin) of 0.06 mg/L [S] and an MIC (voriconazole) of 0.25 µg/mL. The MIC (amphotericin B) was 0.5 mg/L [S], the MIC (flucytosine) was 0.12 mg/L [S] and the MIC (fluconazole) was 16 mg/L [R].
“Candida albicans isolate 283 (Erg11p: WT, Fur1p: WT, Tac1p: N896S)” showed an MIC (itraconazole) of 0.12 mg/L [S], an MIC (micafungin) of 1 mg/L [R] and an MIC (anidulafungin) of 1 mg/L [R]. It also gave an MIC (posaconazole) of 0.06 mg/L [S], an MIC (caspofungin) of 0.5 µg/mL and an MIC (voriconazole) of 1 mg/L [R]. For the same test system, the MIC (amphotericin B) was 2 mg/L [S], the MIC (flucytosine) was ≤ 0.06 mg/L [S] and the MIC (fluconazole) was 32 mg/L [R].
For “Candida albicans isolate 280 (Erg11p: E266D, Fur1p: WT, Tac1p: T885K,I558V,A430V,A377V,F189S,N174D,M170I,M170V,K87N)”, the MIC (itraconazole) was ≤ 0.015 mg/L [S], the MIC (micafungin) was 0.015 mg/L [S] and the MIC (anidulafungin) was ≤ 0.015 mg/L [S]. The MIC (posaconazole) was 0.015 mg/L [S], the MIC (caspofungin) was 0.03 mg/L [S] and the MIC (voriconazole) was ≤ 0.008 mg/L [S]. For the same test system, the MIC (amphotericin B) was 0.25 mg/L [S], the MIC (flucytosine) was ≤ 0.06 mg/L [S] and the MIC (fluconazole) was 0.25 mg/L [S].
For “Candida albicans isolate 370 (Erg11p: V488I,E266D, Fur1p: WT, Tac1p: N896S,L751S,M170V,S108N)”, the MIC (itraconazole) was ≤ 0.015 mg/L [S], the MIC (micafungin) was 0.015 mg/L [S] and the MIC (anidulafungin) was 0.06 mg/L [S]. For the same test system, the MIC (posaconazole) was ≤ 0.008 mg/L [S], the MIC (caspofungin) was 0.03 mg/L [S] and the MIC (voriconazole) was ≤ 0.008 mg/L [S]. For the same test system, the MIC (amphotericin B) was 0.25 mg/L [S], the MIC (flucytosine) was ≤ 0.06 mg/L [S] and the MIC (fluconazole) was 0.25 mg/L [S].
Test System “Candida albicans isolate 26 (Erg11p: WT, Fur1p: WT, Tac1p: N896S)” has an MIC (itraconazole) of 0.12 mg/L [S], an MIC (micafungin) of 0.03 mg/L [S] and an MIC (anidulafungin) of 0.12 mg/L [S]. It also gave an MIC (posaconazole) of 0.12 mg/L [R], an MIC (caspofungin) of 0.03 mg/L [S] and an MIC (voriconazole) of 0.06 mg/L [S]. For the same test system, the MIC (amphotericin B) was 1 mg/L [S], the MIC (flucytosine) was ≤ 0.06 mg/L [S] and the MIC (fluconazole) was 1 mg/L [S].
“Candida albicans isolate 260 (Erg11p: E266D, Fur1p: WT, Tac1p: C908Y,A377V,N174D,M170I,I109N,K87N)” showed an MIC (itraconazole) of 0.03 mg/L [S], an MIC (micafungin) of 0.015 mg/L [S] and an MIC (anidulafungin) of 0.03 mg/L [S]. The MIC (posaconazole) was 0.015 mg/L [S], the MIC (caspofungin) was 0.03 mg/L [S] and the MIC (voriconazole) was ≤ 0.008 mg/L [S]. For the same test system, the MIC (amphotericin B) was 0.25 mg/L [S], the MIC (flucytosine) was ≤ 0.06 mg/L [S] and the MIC (fluconazole) was 0.5 mg/L [S].
Test System “Candida albicans isolate 365 (Erg11p: Y132H,T123I, Fur1p: R101C, Tac1p: WT)” has an MIC (itraconazole) of 0.5 mg/L [R], an MIC (micafungin) of 0.12 mg/L [S] and an MIC (anidulafungin) of 0.06 mg/L [S]. It also gave an MIC (posaconazole) of 0.25 mg/L [R], an MIC (caspofungin) of 0.25 mg/L [S] and an MIC (voriconazole) of 2 mg/L [R]. For the same test system, the MIC (amphotericin B) was 1 mg/L [S], the MIC (flucytosine) was 8 mg/L [R] and the MIC (fluconazole) was 64 mg/L [R].
“Candida albicans isolate 357 (Erg11p: WT, Fur1p: WT, Tac1p: I558V,A377V,F189S,N174D,M170I,K87N)” gave an MIC (itraconazole) of 0.03 mg/L [S], an MIC (micafungin) of 0.015 mg/L [S] and an MIC (anidulafungin) of 0.03 mg/L [S]. For the same test system, the MIC (posaconazole) was 0.015 mg/L [S], the MIC (caspofungin) was 0.03 mg/L [S] and the MIC (voriconazole) was ≤ 0.008 mg/L [S]. For the same test system, the MIC (amphotericin B) was 1 mg/L [S], the MIC (flucytosine) was ≤ 0.06 mg/L [S] and the MIC (fluconazole) was 0.25 mg/L [S].
With “Candida albicans isolate 95 (Erg11p: V488I,E266D, Fur1p: WT, Tac1p: N896S,I895T)” the MIC (itraconazole) was ≤ 0.015 mg/L [S], the MIC (micafungin) was 0.015 mg/L [S] and the MIC (anidulafungin) was ≤ 0.015 mg/L [S]. The MIC (posaconazole) was 0.015 mg/L [S], the MIC (caspofungin) was 0.03 mg/L [S] and the MIC (voriconazole) was ≤ 0.008 mg/L [S]. The MIC (amphotericin B) was 0.25 mg/L [S], the MIC (flucytosine) was ≤ 0.06 mg/L [S] and the MIC (fluconazole) was 0.25 mg/L [S].
For “Candida albicans isolate 227 (Erg11p: E266D,D153E,G129A, Fur1p: WT, Tac1p: N896S,R869Q,L695F,I558V,A377V,E371K,F189S,M170V,L131I)”, the MIC (itraconazole) was 0.03 mg/L [S], the MIC (micafungin) was 0.015 mg/L [S] and the MIC (anidulafungin) was ≤ 0.015 mg/L [S]. The MIC (posaconazole) was 0.03 mg/L [S], the MIC (caspofungin) was 0.03 mg/L [S] and the MIC (voriconazole) was ≤ 0.008 mg/L [S]. For the same test system, the MIC (amphotericin B) was 0.5 mg/L [S], the MIC (flucytosine) was ≤ 0.06 mg/L [S] and the MIC (fluconazole) was 1 mg/L [S].
With “Candida albicans isolate 28 (Erg11p: V488I,E266D, Fur1p: WT, Tac1p: N896S,N174D,M170I,K87N)” the MIC (itraconazole) was 0.03 mg/L [S], the MIC (micafungin) was ≤ 0.008 mg/L [S] and the MIC (anidulafungin) was ≤ 0.015 mg/L [S]. For the same test system, the MIC (posaconazole) was 0.015 mg/L [S], the MIC (caspofungin) was 0.015 mg/L [S] and the MIC (voriconazole) was ≤ 0.008 mg/L [S]. The MIC (amphotericin B) was 0.5 mg/L [S], the MIC (flucytosine) was ≤ 0.06 mg/L [S] and the MIC (fluconazole) was 0.5 mg/L [S].

MIC of clinical C. albicans isolates, CLSI broth microdilution (ranges and time not stated); higher = less susceptible. Call: susceptible or wild type [S] / resistant or non-wild type [R] by CLSI breakpoints or epidemiological cut-offs; intermediate and dose-dependent carry no call here (the paper groups them with resistant). '<=' and '>=' mark each drug's lowest and highest value, inferred; the source prints them plain. Isolates are numbered anew.
